In all, about 45,000 compounds went through this assay and about 200 (0.44%) were called active. Another 7% or so got no clear call; they are omitted. Calls follow the shape of the dose curve; as a rule, active = well fitted activation curve with a large enough effect; inconclusive = small, poorly fitted or top-dose-only effect; inactive = no such curve, though single readings can be large or run the other way. This is one part of the list.
Experiment: qHTS of TDP-43 Inhibitors: NCGC Sytravon Library Screen; also: 0% is about no effect; nearly all actives have a fitted effect of over 55% in size
Conditions: yeast TDP-43 toxicity rescue, BacTiter-Glo growth, 24 h; series mostly up to 46.1 µM; growth rescue (activation): at the top concentration
Source text: The goal of this project is to identify new chemical probes capable of reversing the toxicity associated with TDP-43 which is associated with frontotemporal lobar degeneration and amyotrophic lateral sclerosis. These compounds will provide a complementary approach to deciphering the tangled mechanisms of toxicity and protection that we have uncovered through genome-wide genetic screens and are beginning to uncover in a large-scale proteomics analysis with mass spectroscopy. To this end, a miniaturized assay was developed to be screened against the Molecular Libraries Small Molecule Repository (MLSMR) to discover TDP-43 inhibitors. Please note that in the set-up this yeast-based assay compounds that inhibit as TDP-43, have a read-out as activators. NIH Chemical Genomics Center [NCGC] NIH Molecular Libraries Probe Centers Network [MLPCN] Assay Submitter (PI): Susan Lindquist, Whitehead Institute/MIT MLPCN Grant: R21 NS060957
Dispense 2.5 microL yeast galactose medium per 1536-well plate, pin compound, dispense 2.5 microL TDP-43 expressing yeast in galactose medium at OD600=0.02 (pregrown in raffinose medium to mid-log phase) per well, incubate for 24 hr at 30 deg C, and cell growth will be measured using 5 microL of Bactiter/Glo reagent to entire plate and read using Luminescence Protocol in ViewLux.

SMILES | growth rescue (activation)
Cn1ncc2c1ncn1nc(COc3ccc4ccccc4c3)nc21 | inactive: 8.13%
OC(c1cccc(Cl)c1)c1ncc(-c2cccc(C(F)(F)F)c2)[nH]1 (stereo not given) | inactive: 10.1%
CCn1cc(C(=O)NCCCN2CCN(C)CC2)c(=O)c2cc(S(=O)(=O)N3CCc4ccccc4C3)ccc21 | inactive: -7.99%
O=C(O)c1cccc2c1C(=O)N(c1ccccc1)C2 | inactive: -32.1%
O=C(COC(=O)c1cccs1)NCc1cccs1 | inactive: -2.87%
C=CCOc1ccccc1CN1CCC(Oc2ccc(C(=O)N3CCCCC3)cc2)CC1 | inactive: 11%
COc1ccc(S(=O)(=O)Nc2cccc(S(=O)(=O)N3CCCCCC3)c2)cc1 | inactive: 15%
O=C(CCNC(=O)c1ccccc1Cl)Nc1nc2ccccc2[nH]1 | inactive: 3.32%
O=C(CN(c1ccc(Cl)cc1)S(=O)(=O)c1ccc(Cl)c([N+](=O)[O-])c1)NCCc1ccc(F)cc1 | inactive: 1.43%
O=C(CCc1ccccc1)Nc1ccc(S(=O)(=O)NC2=NCCCCC2)cc1 | inactive: 0.728%
COc1ccc(Cc2nc3ccc(C(=O)NCc4cc(C)no4)cc3o2)cc1 | inactive: 15.1%
CN(C(=O)COC(=O)C1CCN(S(=O)(=O)c2ccc(Cl)cc2)CC1)C1CCS(=O)(=O)C1 (stereo not given) | inactive: 5.36%
CN1C2CC(OC(=O)C(CO)c3ccccc3)CC1C1OC12 (stereo not given) | inactive: 1.96%
Cc1cnc(C(=O)OCc2ccc(C#N)cc2)cn1 | inactive: 8.91%
CS(=O)(=O)N(Cc1ccc(C(=O)NC2CCCC2)cc1)c1ccccc1 | inactive: -4.98%
COc1ccc(-c2nc3ccc([N+](=O)[O-])cc3[nH]2)cc1 | inactive: 1.37%
COCCNC(=O)COC(=O)c1ccc(S(=O)(=O)N2CCOCC2)cc1 | inactive: 2.62%
Cc1ccc(NC(=S)N2CCC(NC(=O)c3ccc(C)cc3)CC2)cc1 | inactive: 10.2%
CSc1ccc(CCNC(=O)C2=C(C)C(=O)OC23CCCCC3)cc1 | inactive: 7.2%
O=C(C/C=N\O)Nc1ccc(Oc2ccccc2)cc1 | inactive: 1.91%
Cc1cccc(C(=O)N/C(=C\c2ccco2)C(=O)N2CCCCCC2)c1 | inactive: 0.875%
CCN(CC)CCCNC(=S)N1CCN(c2nc(-c3ccccc3)cs2)CC1 | inactive: 6.02%

SMILES | growth rescue (activation)
CCOC(=O)c1c(-c2ccccc2)csc1NC(=O)CSc1nnc(C)s1 | inactive: 6.16%
Cn1cc(CNCCN2CCCCC2=O)c(-c2cccc(Cl)c2)n1 | inactive: 10.8%
Cc1cc(C(=O)NNC(=O)c2cccc(S(=O)(=O)N3CCOCC3)c2)c2ccccc2n1 | inactive: -3.44%
O=C(/C=C/c1ccc(Cl)cc1Cl)N(Cc1ccccc1)C1CCS(=O)(=O)C1 (stereo not given) | inactive: 23.6%
COCc1cc(C)nc(SC)c1C#N | inactive: 2.92%
Cc1ccccc1-c1nnc(CN2CCN(C(=O)c3ccco3)CC2)o1 | inactive: -2.44%
Cc1onc(-c2c(F)cccc2Cl)c1C(=O)Nc1ccc(S(=O)(=O)N2CCOCC2)cc1 | inactive: 25.1%
CCCS(=O)(=O)N1CCN(Cc2ccc3c(c2)c2ccccc2n3CC)CC1 | inactive: 11.7%
CCc1cc(-c2n[nH]c(C)c2-c2nc3ccccc3n2C)c(O)cc1O | inactive: 2.77%
Cc1ccn(CCC(=O)N2CCCC(CCC(=O)NCc3ccc(F)c(F)c3)C2)n1 (stereo not given) | inactive: 3.26%
Cc1nc2ccc(C(=O)N(C)Cc3ccco3)cn2c1N(C)CC1CCCCC1 | inactive: 9.93%
COc1ccccc1-n1c(C)cc(/C=C2/C(=N)N3C(=NC2=O)SN=C3S(C)(=O)=O)c1C | inactive: -10.6%
O=C(NN1C(=O)NC2(CCCCC2)C1=O)c1ccc(-c2ccccc2Cl)o1 | inactive: 11.8%
CCC(C)NC(=O)Cn1c(=O)n(CCCCCC(=O)Nc2ccccc2)c(=O)c2sccc21 (stereo not given) | inactive: 3.36%
CN1C(=O)CC(C(=O)Nc2ccc(C(=O)O)cc2)SC1=Nc1ccc(Cl)cc1 (stereo not given) | inactive: 7.73%
CC(C)(C)NC(=O)C(c1c[nH]c2ccccc12)N(C(=O)Cn1nnc(-c2ccc(F)cc2)n1)c1cccc(O)c1 (stereo not given) | inactive: 4.81%
O=C(NCC1COc2ccccc2O1)C1CCN(S(=O)(=O)c2ccccc2)CC1 (stereo not given) | inactive: 25%
COc1cc(C(=O)Oc2cccc(/C=N/NC(=O)c3cccnc3)c2)cc(OC)c1OC | inactive: 22.2%
O=C(CN1C(=O)N/C(=C\c2ccccc2OCc2ccc(C(=O)O)cc2)C1=O)Nc1ccc(F)cc1 | inactive: 9.71%
COc1ccc(OCC(=O)Nc2ccccc2-c2ccccc2)cc1 | inactive: 22.2%
COC(=O)CC1C(=O)NCCN1C(=O)c1c(F)cccc1F (stereo not given) | inactive: -6.14%
CCOC(=O)N(C)c1c(CC)nc2c(OCc3ccccc3C(=O)OC)cccn12 | inactive: -1.65%

SMILES | growth rescue (activation)
COCCCNC(=S)Nc1ccc2c(c1)OCCO2 | inactive: 15.2%
COc1ccc(-c2nc(CN3CCN(c4cc(C)nc(C)c4)CC3)c(C)o2)c2ccccc12 | inactive: 0.271%
COCCSc1nnc(NC(=O)c2ccc(OC)c([N+](=O)[O-])c2)s1 | inactive: -4.52%
CCC1CCCCN1C(=O)COC(=O)c1ccc(S(=O)(=O)N2CCOCC2)cc1 (stereo not given) | inactive: 0.406%
Cc1sc2ncnc(Sc3ccccc3C(=O)Nc3ccc(Br)cc3)c2c1C | inactive: 2.16%
O=S(=O)(NCc1ccccn1)c1cc(Cl)ccc1Cl | inactive: 18.4%
Nc1nonc1-n1nnc(C(=O)N/N=C/c2ccccc2)c1CSc1ccc(Cl)cc1 | inactive: 16.2%
COc1ccc(CC(=O)N2CCCC2)c(OC)c1 | inactive: 24.7%
O=C(NC1CC2CCCC(C1)N2C(=O)Nc1ccccc1)C1CC1 (stereo not given) | inactive: -3.52%
COc1ccc(CCNC(=O)c2ccccc2N(C)S(=O)(=O)c2ccccc2)cc1 | inactive: 5.29%
O=C(COc1ccc(S(=O)(=O)N2CCCC2)cc1)N1CCN(c2ccccc2F)CC1 | inactive: 13.9%
Nc1nnc(CC(=O)N/N=C/c2ccc(-c3cccc(C(=O)O)c3)o2)s1 | inactive: 1.84%
COc1cccc(CNC(=O)CCC2CCCN(Cc3ccc(OC(F)F)cc3)C2)c1 (stereo not given) | inactive: 4.5%
COc1cccc(/C=N/Nc2snc(SC)c2C#N)c1 | inactive: 8.64%
Cc1onc(-c2ccccc2)c1C(=O)Nc1ncc([N+](=O)[O-])s1 | inactive: -8.6%
COc1ccc(NC(=O)CN2C(=O)NC(C)(c3ccccc3)C2=O)cc1Cl (stereo not given) | inactive: 9.7%
CCCCN(Cc1ccccc1)S(=O)(=O)c1ccc2[nH]c(=O)oc2c1 | inactive: 6.71%
O=C(NCCc1nc2ccccc2[nH]1)/C(=C/c1ccco1)NC(=O)c1ccco1 | inactive: -1.57%
CCCOC(=O)Nc1ccccc1C(N)=O | inactive: -10.8%
O=C(O)CSc1nnc(-c2ccc3c(c2)OCO3)n1-c1ccccc1 | inactive: 9.46%
O=C(O)CNC(=O)c1ccc(Oc2c(F)c(F)c(Oc3ccc(C(=O)NCC(=O)O)cc3)c(F)c2F)cc1 | inactive: -3.01%

From PubChem BioAssay AID1347073 (National Center for Advancing Translational Sciences (NCATS), 2019)
